The list shows a part of the results.

Sequences and labels used below:
T1: UNK ZnF1-3 (human, UniProt Q9C0B0 31-174)
T1 sequence: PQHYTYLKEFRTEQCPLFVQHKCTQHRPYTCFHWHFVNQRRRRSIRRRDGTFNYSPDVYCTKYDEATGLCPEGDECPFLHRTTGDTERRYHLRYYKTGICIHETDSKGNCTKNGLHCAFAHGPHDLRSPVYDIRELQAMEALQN

B1: chr3:98531265:98531266:-_ENSG00000057019_ENST00000326840|hu_mus|FALSE|FALSE (ssRNA)
RNA: GGGAGUUCUACAGUCCGACGAUCUCCGAGCAGUUCCACUUUCAUGGCAAUUUUCUGUUGCCACUGGACAGGGUUCACUCUAAUGAAACGUGCAAUAAUUGGUGGCAAAAAGUUAUUACGAACAUCCUUGUGAUAAUCUUUGUUCAACAGAGGAUUGAGCAUCA
B2: chr1:160278953:160278954:-_ENSG00000122218_ENST00000241704|hu_mus|FALSE|FALSE (ssRNA)
RNA: GGGAGUUCUACAGUCCGACGAUCCUGGGAGUCUGCGUCUUUGGGGAUGGUGUAUAGGUCGUAGGUACUGUUCUCUAGAUUGCUUGCUCUGGUGCAGAGCAGCACUGCGUUUUCUGCUGGAUUGUAUGACAUGUUGAAUACUGGCAACAGAGGAUUGAGCAUCA
B3: chr16:45382771:45382772:-_ENSMUSG00000022661_ENSMUST00000163230|mus_mus|mus_mus_mus_hu_True|88_108 (ssRNA)
RNA: GGGAGUUCUACAGUCCGACGAUCCUGAGUGUUAUUGUAAGACAAAUGGAUAGGGAGGGCAUGCUUCUCAAAAAAUGUGAGCUAUUGUCUAAGACUAACAAUAUUUAUCUAGCUAUAAAAAUAAGUUAAAUGAAUAAGUUAAGACAACAGAGGAUUGAGCAUCA
B4: chr2:5814250:5814251:-_ENSMUSG00000025816_ENSMUST00000102981|mus_hu|mus_mus_mus_hu_True|28_78 (ssRNA)
RNA: GGGAGUUCUACAGUCCGACGAUCUUCCUUUCCGGUUUCUGAAUUUCUGGUAGAACUGCACAGAAAGGUUUGAUAACUUCUAAAAAUUUGAUGCCCAUGGCUGCUGCUCAGCACACCCAGGGGGAAACCGCGGCCUCGGCGCUGCAACAGAGGAUUGAGCAUCA
B5: chr6:40197388:40197389:+_ENSMUSG00000057716_ENSMUST00000061740|mus_mus|mus_mus_mus_hu_False|68_68 (ssRNA)
RNA: GGGAGUUCUACAGUCCGACGAUCGAGACACUGGGGUGGAUUUAUUCCACCUCUGUUUGGGUGCUAGUAAGAUAGAUUGUUAUUUUGGGAUUCAUGGCCUUGAAUAUCAAGAGGGAAAGGAAGAGGAUGGAAAGAGUCAAGAGUCAACAGAGGAUUGAGCAUCA
B6: chr7:56126341:56126342:+_ENSG00000146731_ENST00000540286|hu_mus|hu_hu_hu_mus_True|98_108 (ssRNA)
RNA: GGGAGUUCUACAGUCCGACGAUCCAUAUUUCUCCUUUUAGCUCUGCGCAGAGCUACGAUCCCUUCUUUCGCAAGGGCAUCUAAGGAAAAGGGGUCAAUCCCCUUUUGAUUAAUAACGACAAAUCCUUUAUCUGAGUCACCACACAACAGAGGAUUGAGCAUCA

For this assay, the target named is T1, UNK ZnF1-3. In words: nsRBNS (natural sequence RNA bind-n-seq); RBNS binding buffer (assumed for nsRBNS): 25 mM Tris pH 7.5, 150 mM KCl, 3 mM MgCl2, 0.01% Triton X-100, 500 ug/ml BSA, 20 U/ml SUPERase-In, 4 C; UNK is unkempt and MSI1 is Musashi-1; names of the RNAs are library labels; protein concentration not given here; high values mean tight binding.
For B1, the binding signal worked out at 0.652 enrichment R.

Turning to B2, the binding signal was 0.595 enrichment R.

Regarding B3, the binding signal turned out to be 1.57 enrichment R.

Molecule B4 showed a binding signal of 1.2 enrichment R.

The molecule B5 registered a binding signal of 1.66 enrichment R.

In turn, B6 yielded a binding signal of 0.736 enrichment R.

(Values after article PMC12136788.)
